# Results taken from the supplement of paper PMC8728848.
# Some of the results follow.
# B1: PfulAvr4 (Pseudocercospora fuligena) (protein)
# chain: HHHHHHDYKDDDDKTYVQDKTPAFVCPAADIKTTKCLGPKDCLYPSPKTCNGYIQCSPADDSYLTGIIHEMPCPSGLLWNDNKKWCDWPENTTCGLVKSAGATEVDATKQGPTPGKYHG
# Key:
# Experiment in all cases: glycan array binding signal (z-score within array); higher = stronger binding
# Settings in all cases: glycan notation: IUPAC condensed, linker removed
# [1] = target: Fuc(a1-3)[Gal3S(b1-4)]GlcNAc6S
# Outline: (§1)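 Columns mapping to the same glycan were averaged after glycan names were converted to IUPAC-condensed notation. The data come from 3228 arrays in the Consortium for Functional Glycomics database, limited to those with an available protein sequence. Binding is reported as a within-array Z-score averaged across arrays of one protein sequence and across linkers.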
# [2] = target: Fuc(a1-3)[GalNAc(b1-4)]GlcNAc
# Outline: as §1
# [3] = target: Fuc(a1-3)[GalNAc(b1-4)]GlcNAc6S
# Outline: as §1
# Fuc(a1-4)GlcNAc = target: Fuc(a1-4)GlcNAc
# Outline: as §1
# Fuc(b1-3)GlcNAc = target: Fuc(b1-3)GlcNAc
# Outline: as §1
# Gal(a1-2)Gal = target: Gal(a1-2)Gal
# Outline: as §1
# Gal(a1-3)Gal = target: Gal(a1-3)Gal
# Outline: as §1
# Gal(a1-3)Gal(b1-3)GlcNAc = target: Gal(a1-3)Gal(b1-3)GlcNAc
# Outline: as §1
# [4] = target: Gal(a1-3)Gal(b1-3)GlcNAc(b1-2)Man
# Outline: as §1
# [5] = target: Gal(a1-3)Gal(b1-3)GlcNAc(b1-2)Man(a1-3)[Gal(a1-3)Gal(b1-3)GlcNAc(b1-2)Man(a1-6)]Man(b1-4)GlcNAc(b1-4)GlcNAc
# Outline: as §1
# [6] = target: Gal(a1-3)Gal(b1-3)GlcNAc(b1-3)GalNAc
# Outline: as §1
# [7] = target: Gal(a1-3)Gal(b1-3)GlcNAc(b1-6)GalNAc
# Outline: as §1
# [8] = target: Gal(a1-3)Gal(b1-3)[Fuc(a1-4)]GlcNAc(b1-2)Man(a1-3)[Gal(a1-3)Gal(b1-3)[Fuc(a1-4)]GlcNAc(b1-2)Man(a1-6)]Man(b1-4)GlcNAc(b1-4)GlcNAc
# Outline: as §1
# Gal(a1-3)Gal(b1-4)Glc = target: Gal(a1-3)Gal(b1-4)Glc
# Outline: as §1
# Gal(a1-3)Gal(b1-4)GlcNAc = target: Gal(a1-3)Gal(b1-4)GlcNAc
# Outline: as §1
# [9] = target: Gal(a1-3)Gal(b1-4)GlcNAc(b1-2)Man
# Outline: as §1
# [10] = target: Gal(a1-3)Gal(b1-4)GlcNAc(b1-2)Man(a1-3)[Gal(a1-3)Gal(b1-4)GlcNAc(b1-2)Man(a1-6)]Man(b1-4)GlcNAc(b1-4)GlcNAc
# Outline: as §1
# [11] = target: Gal(a1-3)Gal(b1-4)GlcNAc(b1-3)GalNAc
# Outline: as §1
# [12] = target: Gal(a1-3)Gal(b1-4)GlcNAc(b1-6)GalNAc
# Outline: as §1
# [13] = target: Gal(a1-3)Gal(b1-4)[Fuc(a1-3)]GlcNAc
# Outline: as §1
# [14] = target: Gal(a1-3)Gal(b1-4)[Fuc(a1-3)]GlcNAc(b1-2)Man(a1-3)[Gal(a1-3)Gal(b1-4)[Fuc(a1-3)]GlcNAc(b1-2)Man(a1-6)]Man(b1-4)GlcNAc(b1-4)GlcNAc
# Outline: as §1
# Gal(a1-3)GalNAc = target: Gal(a1-3)GalNAc
# Outline: as §1
# [15] = target: Gal(a1-3)[Gal(a1-4)]Gal(b1-4)GlcNAc
# Outline: as §1
# [16] = target: Gal(a1-4)Gal(b1-3)GlcNAc(b1-2)Man(a1-3)[Gal(a1-4)Gal(b1-3)GlcNAc(b1-2)Man(a1-6)]Man(b1-4)GlcNAc(b1-4)GlcNAc
# Outline: as §1
# Gal(a1-4)Gal(b1-4)Glc = target: Gal(a1-4)Gal(b1-4)Glc
# Outline: as §1
# Gal(a1-4)Gal(b1-4)GlcNAc = target: Gal(a1-4)Gal(b1-4)GlcNAc
# Outline: as §1
# [17] = target: Gal(a1-4)Gal(b1-4)GlcNAc(b1-2)Man(a1-3)[Gal(a1-4)Gal(b1-4)GlcNAc(b1-2)Man(a1-6)]Man(b1-4)GlcNAc(b1-4)GlcNAc
# Outline: as §1
# [18] = target: Gal(a1-4)Gal(b1-4)GlcNAc(b1-3)Gal(b1-4)Glc
# Outline: as §1
# Gal(a1-4)GlcNAc = target: Gal(a1-4)GlcNAc
# Outline: as §1
# Gal(a1-6)Glc = target: Gal(a1-6)Glc
# Outline: as §1
# Gal(b1-2)Gal = target: Gal(b1-2)Gal
# Outline: as §1
# Gal(b1-3)Gal = target: Gal(b1-3)Gal
# Outline: as §1
# Gal(b1-3)Gal(b1-4)GlcNAc = target: Gal(b1-3)Gal(b1-4)GlcNAc
# Outline: as §1
# Gal(b1-3)GalNAc = target: Gal(b1-3)GalNAc
# Outline: as §1
# [19] = target: Gal(b1-3)GalNAc(a1-3)[Fuc(a1-2)]Gal(b1-4)Glc
# Outline: as §1
# [20] = target: Gal(b1-3)GalNAc(a1-3)[Fuc(a1-2)]Gal(b1-4)GlcNAc
# Outline: as §1
# Gal(b1-3)GalNAc(b1-3)Gal = target: Gal(b1-3)GalNAc(b1-3)Gal
# Outline: as §1
# [21] = target: Gal(b1-3)GalNAc(b1-3)Gal(a1-4)Gal(b1-4)Glc
# Outline: as §1
# [22] = target: Gal(b1-3)GalNAc(b1-4)Gal(b1-4)Glc
# Outline: as §1
# [23] = target: Gal(b1-3)GalNAc(b1-4)[Neu5Ac(a2-3)]Gal(b1-4)Glc
# Outline: as §1
# Gal(b1-3)GlcNAc = target: Gal(b1-3)GlcNAc
# Outline: as §1
# [24] = target: Gal(b1-3)GlcNAc(a1-3)Gal(b1-4)GlcNAc
# Outline: as §1
# [25] = target: Gal(b1-3)GlcNAc(a1-6)Gal(b1-4)GlcNAc
# Outline: as §1
# Gal(b1-3)GlcNAc(b1-2)Man = target: Gal(b1-3)GlcNAc(b1-2)Man
# Outline: as §1
# [26] = target: Gal(b1-3)GlcNAc(b1-2)Man(a1-3)[Gal(b1-3)GlcNAc(b1-2)Man(a1-6)]Man(b1-4)GlcNAc(b1-4)GlcNAc
# Outline: as §1
binder,measurement,setting,value
B1,glycan array binding signal (z-score),[1],-0.035
same,glycan array binding signal (z-score),[2],-0.015
same,glycan array binding signal (z-score),[3],-0.177
same,glycan array binding signal (z-score),Fuc(a1-4)GlcNAc,0.187
same,glycan array binding signal (z-score),Fuc(b1-3)GlcNAc,-0.033
same,glycan array binding signal (z-score),Gal(a1-2)Gal,-0.068
same,glycan array binding signal (z-score),Gal(a1-3)Gal,-0.087
same,glycan array binding signal (z-score),Gal(a1-3)Gal(b1-3)GlcNAc,-0.1
same,glycan array binding signal (z-score),[4],-0.173
same,glycan array binding signal (z-score),[5],0.128
same,glycan array binding signal (z-score),[6],-0.191
same,glycan array binding signal (z-score),[7],-0.006
same,glycan array binding signal (z-score),[8],-0.138
same,glycan array binding signal (z-score),Gal(a1-3)Gal(b1-4)Glc,-0.096
same,glycan array binding signal (z-score),Gal(a1-3)Gal(b1-4)GlcNAc,-0.07
same,glycan array binding signal (z-score),[9],-0.157
same,glycan array binding signal (z-score),[10],0.001
same,glycan array binding signal (z-score),[11],-0.111
same,glycan array binding signal (z-score),[12],-0.144
same,glycan array binding signal (z-score),[13],-0.176
same,glycan array binding signal (z-score),[14],-0.092
same,glycan array binding signal (z-score),Gal(a1-3)GalNAc,-0.078
same,glycan array binding signal (z-score),[15],-0.061
same,glycan array binding signal (z-score),[16],0.042
same,glycan array binding signal (z-score),Gal(a1-4)Gal(b1-4)Glc,-0.097
same,glycan array binding signal (z-score),Gal(a1-4)Gal(b1-4)GlcNAc,-0.118
same,glycan array binding signal (z-score),[17],-0.032
same,glycan array binding signal (z-score),[18],-0.197
same,glycan array binding signal (z-score),Gal(a1-4)GlcNAc,-0.072
same,glycan array binding signal (z-score),Gal(a1-6)Glc,-0.04
same,glycan array binding signal (z-score),Gal(b1-2)Gal,-0.01
same,glycan array binding signal (z-score),Gal(b1-3)Gal,-0.139
same,glycan array binding signal (z-score),Gal(b1-3)Gal(b1-4)GlcNAc,-0.2
same,glycan array binding signal (z-score),Gal(b1-3)GalNAc,-0.133
same,glycan array binding signal (z-score),[19],-0.132
same,glycan array binding signal (z-score),[20],-0.219
same,glycan array binding signal (z-score),Gal(b1-3)GalNAc(b1-3)Gal,-0.057
same,glycan array binding signal (z-score),[21],-0.044
same,glycan array binding signal (z-score),[22],-0.039
same,glycan array binding signal (z-score),[23],-0.115
same,glycan array binding signal (z-score),Gal(b1-3)GlcNAc,-0.005
same,glycan array binding signal (z-score),[24],-0.02
same,glycan array binding signal (z-score),[25],-0.159
same,glycan array binding signal (z-score),Gal(b1-3)GlcNAc(b1-2)Man,-0.064
same,glycan array binding signal (z-score),[26],0.134
